As usually defined, the inhibition is the change of the read-out against control, counted positive when it falls.

Experimental findings from PubChem BioAssay AID485344 (National Center for Advancing Translational Sciences (NCATS), 2010) are described below.

Structures are written as SMILES. In all, about 340,000 compounds went through this assay and about 6,900 (2%) were called active. Cut-off read from the data, not from the text of the source: active = inhibition above about 30%; inactive = below that, where a call was filed. The entries are a selection whose mix differs from that of the whole data set. Entries without a call were filed so in the source.

In this assay the target is D(2) dopamine receptor (Homo sapiens) (UniProt P14416). Nature of the assay: HTS Assay for Allosteric Antagonists of the Human D2 Dopamine Receptor: Primary Screen for Antagonists. Note: 0% is about no effect. To be noted: HEK293 TREx D2 cells, calcium flux, dopamine EC80; at 10 µM; stronger effect = higher value. Summed up: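 Calcium mobilization kinetics were recorded at 1 s intervals in tetracycline-induced HEK293 T-REx D2 cells, first for 180 s after compound addition and then 180 s after EC80 dopamine.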
Chain of UniProt P14416 (P14416 whole entry, looked up): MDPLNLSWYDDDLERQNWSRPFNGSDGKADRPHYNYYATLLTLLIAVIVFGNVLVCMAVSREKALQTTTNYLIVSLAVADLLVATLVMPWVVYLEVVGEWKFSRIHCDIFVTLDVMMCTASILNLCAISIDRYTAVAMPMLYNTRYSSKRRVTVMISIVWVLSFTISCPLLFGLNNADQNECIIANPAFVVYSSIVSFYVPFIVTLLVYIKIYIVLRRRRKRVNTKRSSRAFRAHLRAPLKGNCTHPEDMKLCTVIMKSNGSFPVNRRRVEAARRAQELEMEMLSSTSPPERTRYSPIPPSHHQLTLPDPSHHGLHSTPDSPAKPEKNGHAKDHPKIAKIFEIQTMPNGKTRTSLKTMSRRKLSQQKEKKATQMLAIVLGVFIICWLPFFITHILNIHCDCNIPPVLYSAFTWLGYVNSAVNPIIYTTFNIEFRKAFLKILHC
For the compound `Cc1ccc2oc(=O)c3cnn(CC(=O)N4CCN(c5cccc(Cl)c5)CC4)c3c2c1`, the inhibition was -7.03%.
The same measure for `CCOC(=O)c1[nH]c(C)c(CCC(=O)N2CCN(c3cc(C)ccc3C)CC2)c1C`: -5.71%; for `CCOc1ccc(OCC)c(NC(=O)CN(C)S(=O)(=O)c2ccc3[nH]c(=O)oc3c2)c1`: 3.04%.
The same measure for `Cc1ccc(NC(=O)c2nc(S(=O)(=O)Cc3ccc(F)cc3)ncc2Cl)cc1C`: 24.6%; for `Cc1cccc(C(=O)Nc2ccc3nc(SCC(=O)N4CCCC4)sc3c2)c1`: 1.75%.
Consider `O=C(CSc1nc(=O)[nH]c2c1CCC2)Nc1cc(C(F)(F)F)ccc1Cl`, for which the inhibition came to 14.4%.
`Cc1cc(C(=O)NCCc2ccc(Cl)cc2)c2c(C)nn(-c3ccccc3)c2n1`: the inhibition stood at 8.53%.
As to `COc1cc(CNC(=O)c2ccc(NC(=O)N3CCCCc4ccccc43)cc2)cc(OC)c1OC`, the inhibition was -0.509%.
Regarding `COc1ccc(-c2n[nH]c3c2C(c2ccccn2)N(C)C3=O)cc1` (configuration not stated), the inhibition is -16.5%.
The same measure for `COc1ccc(-n2nc3c(N4CCC(C(=O)NC5CCCCC5)CC4)nnc(C)c3c2C)cc1`: 3.3%; for `CC(C)CCN1CCN(Cc2cn[nH]c2C2CCCCC2)CC1CCO` (configuration not stated): active: 56.2%; for `COc1ccc(OC)c(CCNC(=O)CCCn2c(=O)c3cccn3c3cccnc32)c1`: 26.6%.
On to `CCOc1ccc(CNS(=O)(=O)c2ccc3c(c2)CC(C)N3C(C)=O)cc1OC` (configuration not stated), for which the inhibition is -8.28%.
`O=C(NCc1ccccc1)c1ccc(CS(=O)(=O)c2c(Cl)cccc2Cl)o1`: the inhibition worked out at 2.69%.
The same measure for `COc1ccc(N2CCN(C(=O)CSc3nc(-c4ccccc4)no3)CC2)cc1`: -12.5%; for `Cc1ccc(NC(=O)Cn2nc(C)c3nn(-c4ccc(Cl)cc4)c(C)c3c2=O)cc1F`: 3.16%.
The same measure for `COC(=O)c1ccc(NC(=O)CSc2nnnn2C2CCCCC2)cc1`: active: 41.7%.
With `COc1ccc(CNC(=O)c2cnn(-c3ccccc3)c2-n2cccc2)cc1OC`, the inhibition is -8.98%.
Take `CCN(CC)CCN(C(=O)c1ccco1)c1nc2ccc(F)cc2s1`: the inhibition is -20.7%.
The same measure for `Cc1ccc(-c2nnc(SCC(=O)NCc3ccccc3)o2)cc1`: 3.33%.
The same measure for `O=C(CN1CCN(c2ccccc2)CC1)Nc1ccc2c(c1)OCCO2`: active: 45.2%; for `CCOC(=O)c1c(NC(=O)CSc2ncn[nH]2)sc(C)c1C`: active: 38.1%.
On to `CC1=C(c2ccc(C)c(C)c2)S(=O)(=O)N=C1N1CCC(C(=O)NCc2ccc(N(C)C)cc2)CC1`, for which the inhibition amounted to 1.71%.
The same measure for `Nc1c(-c2nc(-c3ccccc3Cl)no2)nnn1-c1ccccc1C(F)(F)F`: 15.1%; for `COc1ccccc1NC(=O)N1CCN(c2nnc(C)c3c(C)n(-c4ccccc4)nc23)CC1`: -0.846%; for `O=c1c2oc3ccccc3c2n(Cc2ccccc2F)c(=O)n1Cc1ccc2c(c1)OCO2`: -2.85%.
The same measure for `CCN(CC)S(=O)(=O)c1ccc(NC(=O)c2c(C)oc3ncnc(N4CCCCC4)c23)cc1`: 2.47%.
The same measure for `Cc1ccc(C)c(N2CCN(S(=O)(=O)c3cc(C(=O)Nc4ccccc4C(F)(F)F)ccc3F)CC2)c1`: -5.24%.
Take `CC(Oc1ccccc1)C(=O)Nc1c(C(=O)Nc2cccc(F)c2)oc2ccccc12` (configuration not stated): the inhibition is -11.9%.
The same measure for `CCc1ccc(S(=O)(=O)Nc2cc3c(cc2C)n(C)c(=O)c(=O)n3C)cc1`: -10.5%.
For the compound `Cc1cc(NC(=O)Cn2c(=O)oc3ccccc32)no1`, the inhibition was active: 32.7%.
The same measure for `CCOC(=O)c1c(NC(=O)COc2ccc(Cl)cc2Cl)sc2c1CCCCC2`: -5.14%.
For the compound `CN(C)c1ccc(CNC(=O)Cn2c(-c3cccs3)cc3cc(Cl)ccc32)cc1`, the inhibition was 3%.
As to `CCCC(=O)N1c2ccccc2-c2nnc(SC)nc2OC1c1sccc1C` (configuration not stated), the inhibition is -18.8%.
With `COc1ccc(S(=O)(=O)N2CCC(n3c(C)nc4cccnc43)CC2)cc1Cl`, the inhibition was 1.85%.
In the case of `COc1nc2ccccc2nc1N1CCN(Cc2ccc3c(c2)OCO3)CC1`, the inhibition was active: 51%.
The same measure for `COC(=O)CNC(=O)c1cccs1`: active: 65.9%; for `COc1ccccc1NC(=O)CCS(=O)(=O)c1ccc2c(c1)oc(=O)n2C`: active: 31.5%.
The same measure for `COc1cccc(-c2cc(C(=O)NCc3ccc(F)cc3)no2)c1`: 28.3%; for `COc1cccc(-c2cc(C(F)(F)F)n3ncc(C(=O)N4CCc5ccccc5C4)c3n2)c1`: active: 50%.
The same measure for `COc1cccc(CNC(=O)CCn2cnc3ccccc3c2=O)c1`: 3.45%; for `O=C(CCN1C(=O)c2ccccc2Sc2ncccc21)Nc1ccc(F)cc1`: 0.112%.
Take `CC(CCc1ccccc1)NC(=O)Cn1ncc2c3ccccc3n(Cc3ccccc3)c2c1=O` (configuration not stated): the inhibition came out at 0.0771%.
With `CCCCOc1ccccc1C1CC(=O)Nc2cc(C)c(C)cc21` (configuration not stated), the inhibition is -11.1%.
The same measure for `COc1ccc(-c2nnc(SCC(=O)Nc3c(C)cccc3C)nc2-c2ccc(OC)cc2)cc1`: -18.6%; for `CNc1nc(C)nc(N/N=C/c2ccccc2)n1`: active: 42.4%.
Regarding `CC(C)CNc1ncnc2onc(-c3ccc(Cl)cc3)c12`, the inhibition was found to be 7.4%.
The same measure for `CCOC(=O)c1ccc(NC(=O)c2oc3c(c2C)-c2nn(Cc4ccccc4Cl)cc2CC3)cc1`: 5.41%.
For `COc1cc(C(=O)NCCc2sc(-c3cccc(F)c3)nc2C)cc(OC)c1OC`, the inhibition is 7.25%.
As for `Cc1nc2cc(-c3cccc(F)c3)nn2c(C)c1CCC(=O)NC(C)c1ccccc1` (configuration not stated), the inhibition is 3.57%.
Turning to `O=C(Nc1ccccc1Br)c1cc(CN2CCCC2)on1`, the inhibition worked out at 15.7%.
The same measure for `O=C(O)[C@H]1CCCC[C@H]1C(=O)NCCc1ccccc1`: active: 44.8%; for `COc1cc2c(cc1NC(=O)c1ccccc1C)n(C)c(=O)n2C`: -9.83%; for `COC(=O)c1c(NC(=O)C2c3ccccc3Oc3ccccc32)sc2c1CCC(C(C)(C)C)C2` (configuration not stated): -11%.
The same measure for `CCOC(=O)N1CCC(NC(=O)CCS(=O)(=O)c2ccc3c(c2)CCN3C(=O)CC)CC1`: active: 73.2%; for `CCc1ccc(CNC(=O)c2ccc(-c3nc(CSc4ccc(C)cc4)c(C)o3)cc2)cc1`: 5.2%; for `CCSc1nnc(NC(=O)c2cc(=O)c3cc(C)ccc3o2)s1`: -7.19%.
As to `O=C(CSc1oc(-c2ccc(F)cc2)nc1S(=O)(=O)c1ccccc1)NC1CCCCC1`, the inhibition is -2.17%.
The same measure for `CCOc1ccc(S(=O)(=O)N2CCN(Cc3nc4ccc(C)cc4o3)CC2)cc1`: 18.9%; for `O=C1C(=O)N(C2CCN(C(=O)c3cccc(Cl)c3)CC2)CCN1Cc1ccc(F)cc1`: 0.541%; for `O=C(CSc1nc2c([nH]c3ccccc32)c(=O)n1-c1ccccc1F)Nc1cccc(C(F)(F)F)c1`: 0.208%.
As for `CCOc1ccc(NC(=O)c2cnc3sc(N4CCOCC4)nn3c2=O)cc1`, the inhibition was -7.95%.
